Source: paper PMC4336329 (PLoS ONE, 2015)
Screen size: about 310,000 compounds; about 2,200 (0.71%) showed an effect of 50% or more. The effect is printed as a negative number. This is one part of the list.

What follows are molecules tested against human ether-à-go-go-related gene (hERG) potassium channel (human, UniProt Q12809) (assay: primary screen, population patch clamp on CHO cells stably expressing hERG).
Sequence of human ether-à-go-go-related gene (hERG) potassium channel (Q12809 whole entry, looked up): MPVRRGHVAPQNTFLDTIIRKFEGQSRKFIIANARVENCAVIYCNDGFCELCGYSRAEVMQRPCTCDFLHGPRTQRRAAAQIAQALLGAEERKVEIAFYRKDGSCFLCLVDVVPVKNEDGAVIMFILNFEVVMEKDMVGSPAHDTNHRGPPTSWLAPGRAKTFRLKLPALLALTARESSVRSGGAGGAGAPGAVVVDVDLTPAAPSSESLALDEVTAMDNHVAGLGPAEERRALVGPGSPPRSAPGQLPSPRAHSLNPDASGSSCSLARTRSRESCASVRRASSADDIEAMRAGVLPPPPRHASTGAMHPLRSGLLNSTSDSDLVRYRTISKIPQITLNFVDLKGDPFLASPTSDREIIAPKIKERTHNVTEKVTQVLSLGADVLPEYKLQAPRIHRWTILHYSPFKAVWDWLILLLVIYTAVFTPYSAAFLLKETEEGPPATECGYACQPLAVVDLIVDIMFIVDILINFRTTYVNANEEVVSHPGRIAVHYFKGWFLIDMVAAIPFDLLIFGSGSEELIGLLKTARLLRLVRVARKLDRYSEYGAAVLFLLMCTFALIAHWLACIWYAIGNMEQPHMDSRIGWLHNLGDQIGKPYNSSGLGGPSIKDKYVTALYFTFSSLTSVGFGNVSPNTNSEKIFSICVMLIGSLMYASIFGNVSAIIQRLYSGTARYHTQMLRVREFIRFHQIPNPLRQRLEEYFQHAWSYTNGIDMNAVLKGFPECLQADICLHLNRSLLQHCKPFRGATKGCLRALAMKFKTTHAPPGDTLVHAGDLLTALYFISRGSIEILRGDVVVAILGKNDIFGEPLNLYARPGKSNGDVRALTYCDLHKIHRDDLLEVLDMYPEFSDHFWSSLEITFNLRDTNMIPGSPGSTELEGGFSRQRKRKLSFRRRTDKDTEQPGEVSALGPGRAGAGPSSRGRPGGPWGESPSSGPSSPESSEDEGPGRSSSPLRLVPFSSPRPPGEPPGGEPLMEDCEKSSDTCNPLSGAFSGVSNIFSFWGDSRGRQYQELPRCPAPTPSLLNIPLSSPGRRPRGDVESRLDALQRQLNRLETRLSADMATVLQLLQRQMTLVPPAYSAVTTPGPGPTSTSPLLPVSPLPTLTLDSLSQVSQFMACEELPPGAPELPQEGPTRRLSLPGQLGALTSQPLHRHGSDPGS
O=C(OCC(O)COC(=O)c1cccnc1)c1cccnc1 was tested, and the “hERG current change (%, negative = inhibition) at 1uM” value was 15.2%.
In the case of Cc1ccc(C(=O)NNC(=O)COc2ccc(Cl)cc2C)o1, the “hERG current change (%, negative = inhibition) at 1uM” value is reported as -4.39%.
In the case of Cc1ccc(C)c(N2N=C(C(=O)OCc3nnc(-c4ccccc4)o3)CCC2=O)c1, the “hERG current change (%, negative = inhibition) at 1uM” value is reported as 5.14%.
In the case of Cc1cccc(N2CCN(S(=O)(=O)c3c(C)[nH]c(C)c3C(=O)N3CCCCC3)CC2)c1C, the “hERG current change (%, negative = inhibition) at 1uM” value is reported as 5.05%.
O=C(COc1ccc(-n2cnnn2)cc1)NC(=O)NCc1ccccc1 was tested, and the “hERG current change (%, negative = inhibition) at 1uM” value was 3.62%.
With CCN(CC)S(=O)(=O)c1cccc(-c2nnc(SCCCC(=O)c3ccccc3)o2)c1 the “hERG current change (%, negative = inhibition) at 1uM” value was 3.3%.
Cc1cnc(C(=O)Nc2ccc3c(c2)CCC3)cn1 was tested, and the “hERG current change (%, negative = inhibition) at 1uM” value was 10.7%.
In the case of Cc1cccc(C)c1OCC(O)CNC(C)(C)C.Cl (centres unmarked), the “hERG current change (%, negative = inhibition) at 1uM” value is reported as 11.6%.
Cc1ccc(C)c(NC(=O)Nn2cnnc2)c1 was tested, and the “hERG current change (%, negative = inhibition) at 1uM” value was 12.2%.
For O=[N+]([O-])c1ccc(N2CCCCC2)cc1N1CCOCC1, the “hERG current change (%, negative = inhibition) at 1uM” value was 2.47%.
CC(Oc1ccc(Cl)cc1Cl)C(=O)NNC(=O)C(=O)N1CCCC1 (centres unmarked) was tested, and the “hERG current change (%, negative = inhibition) at 1uM” value was 16%.
For Cc1cccc(-c2nnc(SCC(=O)Nc3ncccn3)n2C)c1, the “hERG current change (%, negative = inhibition) at 1uM” value was 8.58%.
For Cc1cccc(C(=O)N2CCN(c3ccccn3)CC2)c1, the “hERG current change (%, negative = inhibition) at 1uM” value was 11.7%.
CCOC(=O)c1ccc(NC(=O)C2C3C=CC(O3)C2C(=O)O)cc1 (centres unmarked) was tested, and the “hERG current change (%, negative = inhibition) at 1uM” value was 16.8%.
In the case of Cc1c(C(=O)CN2CCCC(C)(C)C2)c2ccccc2n1C, the “hERG current change (%, negative = inhibition) at 1uM” value is reported as 8.16%.
For Br.Cn1c(=N)n(CC(=O)C(C)(C)C)c2ccccc21, the “hERG current change (%, negative = inhibition) at 1uM” value was -11%.
O=C(Nc1ccc2ncccc2c1)c1ccccc1 was tested, and the “hERG current change (%, negative = inhibition) at 1uM” value was 11.5%.
CC1(C)C/C(=N/Nc2ccc([N+](=O)[O-])cc2[N+](=O)[O-])C(C)(C)O1 was tested, and the “hERG current change (%, negative = inhibition) at 1uM” value was 10.6%.
With O/N=C1\CCCc2nnc3c(c21)CCCC3 the “hERG current change (%, negative = inhibition) at 1uM” value was 13%.
In the case of Cc1ccc(S(=O)(=O)N2CCCCC2C(=O)N(C)c2ccccc2)cc1 (centres unmarked), the “hERG current change (%, negative = inhibition) at 1uM” value is reported as 5.34%.
In the case of O=C(c1ccc(Br)o1)N1CCC(c2nc3ccccc3[nH]2)CC1, the “hERG current change (%, negative = inhibition) at 1uM” value is reported as 11.9%.
For O=C(O)CSC12CC3CC(C1)CC(C(=O)O)(C3)C2, the “hERG current change (%, negative = inhibition) at 1uM” value was 10.6%.
With COc1ccc(C2C(C#N)=C(N)N(c3cccnc3)C3=C2C(=O)CC(C)(C)C3)cc1OC (centres unmarked) the “hERG current change (%, negative = inhibition) at 1uM” value was -1.84%.
For CCN1C(=O)c2cccc3c(NC(=O)c4cccc(N5C(=O)CCC5=O)c4)ccc1c23, the “hERG current change (%, negative = inhibition) at 1uM” value was 7.58%.
With CN(C)C(CNC(=O)Cc1ccc(Br)cc1)c1ccccc1 (centres unmarked) the “hERG current change (%, negative = inhibition) at 1uM” value was 10.3%.
For Cc1cccc(NNC(=O)C2CCC2)c1, the “hERG current change (%, negative = inhibition) at 1uM” value was 1.94%.
With COc1ccc(CNC(=O)c2ccc(NC(=O)C3CCCO3)cc2)cc1 (centres unmarked) the “hERG current change (%, negative = inhibition) at 1uM” value was 0.478%.
In the case of Cc1noc(C)c1COc1cccc(C(=O)N2CCN(C/C=C/c3ccccc3)CC2)c1, the “hERG current change (%, negative = inhibition) at 1uM” value is reported as 11.6%.
For CCOC(=O)N1CCN(C(=O)CNC(=O)c2nn(-c3ccc(OC)cc3)c(=O)c3ccccc23)CC1, the “hERG current change (%, negative = inhibition) at 1uM” value was 7.33%.
In the case of O=C(Nc1ccc(OC(F)(F)C(F)F)c(NC(=O)c2cccc(F)c2)c1)c1cccc(F)c1, the “hERG current change (%, negative = inhibition) at 1uM” value is reported as 2.29%.
In the case of COC(=O)C1(CCSC)NC(c2ccc(OC)cc2OC)C2C(=O)N(c3cccc(C(C)=O)c3)C(=O)C21 (centres unmarked), the “hERG current change (%, negative = inhibition) at 1uM” value is reported as 14.9%.
CN(C(=O)c1ccc(-c2nn(C)c(=O)c3ccccc23)cc1)c1ccccc1 was tested, and the “hERG current change (%, negative = inhibition) at 1uM” value was 2.6%.
For O=C(Nc1ccc(Oc2ncnc3cc(Cl)ccc23)nc1)c1cccs1, the “hERG current change (%, negative = inhibition) at 1uM” value was 11.6%.
With Cc1cc(-c2nnc(CCC(=O)N3CCN(Cc4cccnc4)CC3)o2)c(C)o1 the “hERG current change (%, negative = inhibition) at 1uM” value was 6.73%.
For CCC1CCCCN1C(=O)CSc1nnc(-c2c[nH]c3ccccc23)o1 (centres unmarked), the “hERG current change (%, negative = inhibition) at 1uM” value was 15.2%.
COc1cccc(-c2c(NC(=O)c3ccco3)oc3ccc(Cl)cc3c2=O)c1 was tested, and the “hERG current change (%, negative = inhibition) at 1uM” value was 8.6%.
For C/C(=N\O)c1oc2ccc3c(C)cc(=O)oc3c2c1C, the “hERG current change (%, negative = inhibition) at 1uM” value was 16.9%.
In the case of CN(CC(=O)NCCN1CCCCCC1)S(=O)(=O)c1cccc2nsnc12, the “hERG current change (%, negative = inhibition) at 1uM” value is reported as 9.42%.
With Cc1ccc(Cc2c(C)c(C#N)c3[nH]c4ccccc4n3c2=O)cc1 the “hERG current change (%, negative = inhibition) at 1uM” value was 9.52%.
CC1(c2ccccc2)NC(=O)N(CC(=O)Nc2cc(Cl)ccc2N2CCOCC2)C1=O (centres unmarked) was tested, and the “hERG current change (%, negative = inhibition) at 1uM” value was 12.1%.
With CCCNc1ncccc1C(N)=O the “hERG current change (%, negative = inhibition) at 1uM” value was 8.51%.
O=C(CSc1nnc(NC(=O)c2ccccc2F)s1)NC1CC1 was tested, and the “hERG current change (%, negative = inhibition) at 1uM” value was 20%.
Cc1cc(S(=O)(=O)N(Cc2ccc(F)cc2)CC2CCCO2)ccc1-n1cnnn1 (centres unmarked) was tested, and the “hERG current change (%, negative = inhibition) at 1uM” value was 0.35%.
With Br.CCO.NCCCCCC(=O)OC1N=C(c2ccccc2Cl)c2cc(Br)ccc2NC1=O (centres unmarked) the “hERG current change (%, negative = inhibition) at 1uM” value was 6.47%.
